Assays:
[1] = biological target: T1, Type I insulin-like growth factor receptor; assay: competitive displacement, antibody-capture microtiter plate, IGFR
T1 construct: also called IGFR; IGF Type I receptor
Procedure: Microtiter strip plates (Nunc Maxisorb) were incubated overnight at 4° C. with AU5 IgG (100 μl/well of 40 mg/ml in phosphate-buffered saline). Binding data were analyzed by a two-site sequential model. A corresponding microtiter plate antibody assay using the IGF Type I receptor was employed to assess cross-binding to this homologous receptor.

[2] = biological target: T1, Type I insulin-like growth factor …; assay: receptor-binding assay, IGFR
[3] = biological target: T2, Human Insulin Receptor Isoform A (human); assay: receptor-binding assay, HIRA
T2 construct: also called HIRA

[4] = biological target: T1, Type I insulin-like growth factor …; assay: receptor-binding assay, IGFR; remark: listed apart in the source

relative affinity for IGFR (percent of IGF-I) [1] [%]	fold reduction of affinity in comparison to HI [2] [fold]	Kd [3] [nM]	Kd [4] [nM]	Binder
0.05	–	–	–	His^A4-His^A8-His^B1-insulin (ligand, also called His^B1-His^A4-His^A8-ins) chain 1: not shown chain 2: not shown
–	> 4	0.016	65.3	[His^A4, His^A8]-KP insulin (ligand, also called HisA4, A8 KP-ins) chain 1: not shown chain 2: not shown
0.92	–	–	–	insulin glargine (Lantus) (ligand, also called [Gly^A21, Arg^B31, Arg^B32]-insulin) chain 1: not shown chain 2: not shown

From patent publication US20120184488A1 (CASE WESTERN RESERVE UNIVERSITY, published 2012)
